The name of at least one read-out is uncertain.
Columns and labels:
Assay type in all cases: in vivo
[1] = Example 1: UUO mice, mean body weight change following surgery; settings: PO QD days 1-14, mg/kg: Telmisartan 5, Iguratimod 15, Repirinast 30, Lobenzarit 48, Actarit 60, Ifenprodil 30, Bemithyl 200, Bromantane 20, Emoxypine 160, Udenafil 40, Suplatast Tosylate 60, Istradefylline 8
Description: (§1) Male 9-12 week old C57BL/6 mice of 23-25 grams body weight were used. All mice were acclimated for a minimum of 5 days prior to the start of the study and housed individually in microisolators throughout the study in a 12:12 light-dark cycle on a standard maintenance mouse chow diet (Harlan Teklad 2018) with food and water given ad libitum. Prior to surgery, all mice were weighed for baseline body weight.
(§2) The UUO surgical intervention was performed according to previously described methods known in the art (Le Meur Y et al., Macrophage accumulation at a site of renal inflammation is dependent on the M-CSF/c-fms pathway, J Leukocyte Biol., 72:530-537; 2002).
(§3) All mice were first anesthetized by intraperitoneal injection with a rodent cocktail (ketamine 10 mg/mL and Xyaline 1 mg/mL) in normal saline (10 μL/g body weight). Pedal reflex and movement of the vibrissae were used to determine the state of unconsciousness. A state of unconsciousness was confirmed after a period of about 5 minutes in all animals. All mice were then shaved on the left side of the abdomen. The shaved area was first swabbed with iodine and then swabbed with alcohol. A vertical incision was made through the skin with a #22 scalpel and the skin was then retracted. A further incision of about 2.5 cm was then made through the peritoneum avoiding any major blood vessels. The peritoneum was then retracted and the left kidney was exposed.
(§4) The left kidney was then brought to the surface by hooking the ureter directly beneath the kidney with sterile forceps and gently manipulating the kidney upward. The ureter was ligated at two points directly below the kidney with 5-0 surgical silk with excess suture cut away and discarded post-ligation. The kidney was then gently placed back to its correct anatomical position and the abdomen was lavaged with 1 mL sterile saline to replenish fluid loss. The peritoneum and then skin were sutured with 5-0 Mersilene, and the incision site was gently wiped with iodine. All mice were then placed individually in clean cages that were set on top of a thermal blanket until recovery at about 30-60 minutes later. In some examples, sham surgery was performed as a control by following all steps of the UUO surgical intervention procedure except ligation.
(§5) Following surgery, the mice were divided into 14 individual study groups of 8 mice each and, following post-surgical recovery, administered a once-daily oral treatment for 14 days. The mice in 12 of the 14 study groups (hereafter known as “treatment groups”) had all received the UUO surgical ligation and were treated individually with a distinct pharmacologic compound as set out in Table 1. The mice in 2 of the 14 study groups were treated individually with a pharmaceutically acceptable vehicle with no active ingredient. The pharmaceutically acceptable vehicle in all groups was 0.5% carboxymethyl cellulose (CMC). All mice were sacrificed with CO2 on post-surgical day 15.
(§6) The dose selected for the animal studies was determined by taking the maximum known human daily dose, dividing by the average weight of an adult (˜60-70 kg) to get a human mg/kg dose. Then that number was multiplied by 12 to convert to a mouse dose based on conventional dosing tables. See Nair and Jacob, J Basic Clin Pharm March 2016-May 2016, 7(2):27-31.
Body weight: The body weights were measured on days 1, 2, 5, 8, 10 and 14 using a laboratory balance.
Body weights were measured on post-surgical days 1, 2, 5, 8, 10 and 14 as previously described. The mean body weight change of each study group was calculated using the body weight average of all mice in each study group.

[2] = system: C57BL/6 mice with UUO surgical ligation; experiment: Example 1: UUO mice, renal function evaluation (plasma BUN, creatinine); settings: plasma at sacrifice day 15, group mean, male C57BL/6 mice, PO QD days 1-14, mg/kg: Telmisartan 5, Iguratimod 15, Repirinast 30, Lobenzarit 48, Actarit 60, Ifenprodil 30, Bemithyl 200, Bromantane 20, Emoxypine 160, Udenafil 40, Suplatast Tosylate 60, Istradefylline 8
Description: as §1, §2, §3, §4, §5, §6
Serum collection: A blood sample was then collected from all mice and plasma analyzed for urea nitrogen and creatinine. Plasma was stored at −80° C. for possible future analysis.
Renal Function Evaluation: Renal function and disease progression was evaluated by BUN (blood urea nitrogen) as previously described. The BUN of each study group consisted of the BUN average of all mice in each study group.

[3] = system: C57BL/6 mice with UUO surgical ligation; experiment: Example 1: UUO mice, kidney weight evaluation (ligated vs non-ligated kidney); settings: PO QD days 1-14, mg/kg: Telmisartan 5, Iguratimod 15, Repirinast 30, Lobenzarit 48, Actarit 60, Ifenprodil 30, Bemithyl 200, Bromantane 20, Emoxypine 160, Udenafil 40, Suplatast Tosylate 60, Istradefylline 8
Description: as §1, §2, §3, §4, §5, §6
Kidney weight: The UUO was then examined in situ to ensure that the surgical ligation ties remained patent. Both the ligated (UUO) and non-ligated kidneys were removed for analysis. Weights of both kidneys were measured using a laboratory balance.
Kidney Weight Evaluation: Kidney weight indicating, which indicates functional and pathological changes in the kidney, was evaluated by measuring the weight of both the ligated (UUO) and non-ligated kidneys as previously described. The ligated and non-ligated kidney weights of each study group consisted of the respective kidney weight averages of all mice in each study group.

[4] = system: C57BL/6 mice with UUO surgical ligation; experiment: Example 1: UUO mice, renal fibrosis evaluation (Sirius Red histology score); settings: male C57BL/6 mice, PO QD days 1-14, mg/kg: Telmisartan 5, Iguratimod 15, Repirinast 30, Lobenzarit 48, Actarit 60, Ifenprodil 30, Bemithyl 200, Bromantane 20, Emoxypine 160, Udenafil 40, Suplatast Tosylate 60, Istradefylline 8
Description: as §1, §2, §3, §4, §5, §6
Histopathology: Formalin-fixed kidney cross-section samples were subjected histopathological scoring with Sirius Red staining, and imaged at a magnification of ×20, using standard techniques. All three sections were stained and evaluated. The analysis was performed by a board-certified veterinarian pathologist. The presence of interstitial damage and severity score was assessed according to the following criteria: 0=normal, 1=light, 2=moderate, 3=severe.
Values are arithmetic means. Comparison between the study group and positive control group was performed using a two-tailed, heteroscedastic (two-sample unequal variance) Student's T-Test. […]

[5] = group mean, day 15, male C57BL/6 mice

With `CCCOc1ccc(S(=O)(=O)NCCC2CCCN2C)cc1-c1nc(=O)c2c([nH]1)c(CCC)nn2C` (centres unmarked) [Udenafil] the “Mean Body Weight Change Following Surgery, day 1 post surgery” value ([1]; day 1, male C57BL/6 mice) was 0 g, the “Mean Body Weight Change Following Surgery, day 2 post surgery” value ([1]; day 2, male C57BL/6 mice) was -0.12 g and the “Mean Body Weight Change Following Surgery, day 5 post surgery” value ([1]; day 5, male C57BL/6 mice) was -0.52 g. For the same compound, the “Mean Body Weight Change Following Surgery, day 8 post surgery” value ([1]; day 8, male C57BL/6 mice) was -0.49 g, the “Mean Body Weight Change Following Surgery, day 10 post surgery” value ([1]; day 10, male C57BL/6 mice) was 0.03 g and the “Mean Body Weight Change Following Surgery, day 14 post surgery” value ([1]; day 14, male C57BL/6 mice) was 0.25 g. For the same compound, the BUN ([2]; * p<0.05 vs vehicle Bonferroni, # Tamhane) was 17.9875* mg/dL, the Creatinine [2] was 0.20 mg/dL and the “Difference (L − R) of kidney weights” value [3, 5] was 0.347 g. For the same compound, the “L-kidney (ligated, UUO) weight” value [3, 5] was 0.491 g, the “R-kidney (non-ligated) weight” value [3, 5] was 0.144 g and the “Reduction of kidney weight difference (L − R) versus vehicle” value ([3]; male C57BL/6 mice) was 7%. For the same compound, the “Histology Score (Sirius Red Stain Scoring)” value ([4]; 0=normal, 1=light, 2=moderate, 3=severe, group mean) was 1.50 and the “% Reduction Fibrosis (vs vehicle)” value ([4]; from Sirius Red histology score) was 34%.

Reference: US12280026B2, “Use of repirinast in the prophylaxis or treatment of renal fibrosis or kidney disease” (ALGERNON PHARMACEUTICALS INC., priority 2018, dated 2025)
